Data reported in the supplement of paper PMC4604168 (melanoma cell lines).
The list shows a part of the results. Many values rest on one well or one pass, so single values are uncertain.
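Also: cell number obtained by counting DAPI-stained nuclei in high-throughput microscope images with image analysis software, screen run in 1,536-well plates.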

What follows are compounds tested on WM1716 (assay: cell count relative to DMSO control; melanoma cells; higher = more viable cells). Conditions: library dose: low library concentration; 72 h.
For `O=C(Nc1ccccc1)c1cc([N+](=O)[O-])ccc1Cl` + N#Cc1c(O)c2c(-c3ccc(-c4ccccc4O)cc3)csc2[nH]c1=O [A769662] (first compound 2 µM, partner dose 2 µM), the cell count was 105%.
For `Cc1cc(N2CCOCC2)cc2[nH]c(-c3c(NC[C@@H](O)c4cccc(Cl)c4)cc[nH]c3=O)nc12` + COc1ccc2c(c1)CCC1C2CCC2(C)C(NCCCCCCN3C(=O)C=CC3=O)CCC12 [U73122] (first compound 0.2 µM, partner dose 0.4 µM), the cell count was 84.8%.
For `O=C(O)c1ccc2c(c1)nc(Nc1cccc(Cl)c1)c1ccncc12` + c1cc(-c2cnn3cc(-c4ccc(OCCN5CCCCC5)cc4)cnc23)ccn1 [Dorsomorphin] (first compound 0.4 µM, partner dose 0.4 µM), the cell count was 86.2%.
Work on `O=C(Nc1cc(C(F)(F)F)cc(C(F)(F)F)c1)c1cc(Cl)ccc1O` + CCN(CC)CCNC(=O)c1c(C)[nH]c(/C=C2\C(=O)Nc3ccc(F)cc32)c1C [sunitinib] (first compound 0.016 µM, partner dose 0.4 µM) yielded a cell count of 93.2%.
`Cc1cc(N2CCOCC2)cc2[nH]c(-c3c(NC[C@@H](O)c4cccc(Cl)c4)cc[nH]c3=O)nc12` + COc1cc2ncnc(Nc3ccc(Oc4ccccc4)cc3)c2cc1OC [SrcI1] (first compound 0.2 µM, partner dose 2 µM) showed a cell count of 117%.
Compound `O=C(Nc1ccccc1)c1cc([N+](=O)[O-])ccc1Cl` + COc1cc(N2CCC(N3CCN(C)CC3)CC2)ccc1Nc1ncc(Cl)c(Nc2ccccc2S(=O)(=O)C(C)C)n1 [NVP-TAE684] (first compound 2 µM, partner dose 0.08 µM) has a cell count of 97.9%.
Compound `O=C(Nc1cc(C(F)(F)F)cc(C(F)(F)F)c1)c1cc(Cl)ccc1O` + NC(=O)Nc1cc(-c2cccc(F)c2)sc1C(=O)N[C@H]1CCCNC1 [AZD7762] (first compound 0.016 µM, partner dose 0.02 µM) has a cell count of 99.3%.
Compound `Cn1nnc2c(C(N)=O)ncn2c1=O` [temozolomide] + O=C(Nc1cccc(Cl)c1)Nc1ncc(CCNc2ncnc3ccsc23)s1 [SNS314] (first compound 2 µM, partner dose 0.0008 µM) has a cell count of 88.5%.
`O=C(O)c1ccc2c(c1)nc(Nc1cccc(Cl)c1)c1ccncc12` + O=C(O)c1ccc(-c2c[nH]c3ncc(-c4ccccc4)cc23)cc1C1CCCC1 [GSK650394] (first compound 0.4 µM, partner dose 0.16 µM) showed a cell count of 86%.
`O=C(Nc1cc(C(F)(F)F)cc(C(F)(F)F)c1)c1cc(Cl)ccc1O` + OCc1c[nH]c2ccccc12 [Indole-3-carbinol] (first compound 0.016 µM, partner dose 0.8 µM) gave a cell count of 95.6%.
In the case of `O=C(O)[C@@H]1[O][Sb](=[O])([O][Sb]2(=[O])[O][C@H]([C@H](O)CO)[C@H](O)[C@H](C(=O)O)[O]2)[O][C@H]([C@H](O)CO)[C@@H]1O` (stereo not given in full) [stibogluconate] + C[C@]1(c2nc3c(C(N)=O)cccc3[nH]2)CCCN1 [Veliparib] (first compound 2 µM, partner dose 1.4 µM), the cell count is reported as 90.5%.
Work on `O=C(Nc1cc(C(F)(F)F)cc(C(F)(F)F)c1)c1cc(Cl)ccc1O` + O=C(CCCCCCC(=O)Nc1ccccc1)NO [vorinostat] (first compound 0.016 µM, partner dose 0.08 µM) yielded a cell count of 75.9%.
`O=C(Nc1cc(C(F)(F)F)cc(C(F)(F)F)c1)c1cc(Cl)ccc1O` + CC1(C)NC(=O)N(c2ccc([N+](=O)[O-])c(C(F)(F)F)c2)C1=O [nilutamide] (first compound 0.016 µM, partner dose 1 µM) was tested, and the cell count was 90.1%.
With `O=C(O)c1ccc2c(c1)nc(Nc1cccc(Cl)c1)c1ccncc12` + OCc1c[nH]c2ccccc12 [Indole-3-carbinol] (first compound 0.4 µM, partner dose 0.8 µM) the cell count was 87.5%.
Work on `Cn1nnc2c(C(N)=O)ncn2c1=O` [temozolomide] + COc1cc(Nc2ncc(F)c(Nc3ccc4c(n3)NC(=O)C(C)(C)O4)n2)cc(OC)c1OC [Tamatinib] (first compound 2 µM, partner dose 0.4 µM) yielded a cell count of 84.8%.
`Cc1cc(N2CCOCC2)cc2[nH]c(-c3c(NC[C@@H](O)c4cccc(Cl)c4)cc[nH]c3=O)nc12` + CCN(CC)CCCCNc1ncc2cc(-c3cc(OC)cc(OC)c3)c(NC(=O)NC(C)(C)C)nc2n1 [PD173074] (first compound 0.2 µM, partner dose 0.1 µM) showed a cell count of 99.3%.
For `Cc1cc(N2CCOCC2)cc2[nH]c(-c3c(NC[C@@H](O)c4cccc(Cl)c4)cc[nH]c3=O)nc12` + CCc1ccc(CCOc2ccc(CC3SC(=O)NC3=O)cc2)nc1 [pioglitazone] (first compound 0.2 µM, partner dose 2 µM), the cell count was 103%.
Compound `O=C(O)c1ccc2c(c1)nc(Nc1cccc(Cl)c1)c1ccncc12` + COCC[n+]1c2c(n(Cc3cnccn3)c1C)C(=O)c1ccccc1C2=O [YM155] (first compound 0.4 µM, partner dose 0.0004 µM) has a cell count of 98.1%.
For `O=C(O)[C@@H]1[O][Sb](=[O])([O][Sb]2(=[O])[O][C@H]([C@H](O)CO)[C@H](O)[C@H](C(=O)O)[O]2)[O][C@H]([C@H](O)CO)[C@@H]1O` (stereo not given in full) [stibogluconate] + CCc1ccc(CCOc2ccc(CC3SC(=O)NC3=O)cc2)nc1 [pioglitazone] (first compound 2 µM, partner dose 2 µM), the cell count was 99.2%.
With `O=C(Nc1cc(C(F)(F)F)cc(C(F)(F)F)c1)c1cc(Cl)ccc1O` + O=S(=O)(c1ccccc1)N(CC(F)(F)F)c1ccc(C(O)(C(F)(F)F)C(F)(F)F)cc1 [T0901317] (first compound 0.016 µM, partner dose 1.4 µM) the cell count was 106%.
In the case of `O=C(Nc1cc(C(F)(F)F)cc(C(F)(F)F)c1)c1cc(Cl)ccc1O` + CCCCCCCCc1ccc(CCC(N)(CO)CO)cc1 [fingolimod] (first compound 0.016 µM, partner dose 2 µM), the cell count is reported as 99%.
`O=C(Nc1cc(C(F)(F)F)cc(C(F)(F)F)c1)c1cc(Cl)ccc1O` + O=C(Nc1cccc(Cl)c1)Nc1ncc(CCNc2ncnc3ccsc23)s1 [SNS314] (first compound 0.016 µM, partner dose 0.0008 µM) showed a cell count of 106%.
Compound `O=C(Nc1ccccc1)c1cc([N+](=O)[O-])ccc1Cl` + c1cc(-c2cnn3cc(-c4ccc(OCCN5CCCCC5)cc4)cnc23)ccn1 [Dorsomorphin] (first compound 2 µM, partner dose 0.4 µM) has a cell count of 88.9%.
`O=C(O)[C@@H]1[O][Sb](=[O])([O][Sb]2(=[O])[O][C@H]([C@H](O)CO)[C@H](O)[C@H](C(=O)O)[O]2)[O][C@H]([C@H](O)CO)[C@@H]1O` (stereo not given in full) [stibogluconate] + Cn1nnc2c(C(N)=O)ncn2c1=O [temozolomide] (first compound 2 µM, partner dose 2 µM) showed a cell count of 85.8%.
`Cc1cc(N2CCOCC2)cc2[nH]c(-c3c(NC[C@@H](O)c4cccc(Cl)c4)cc[nH]c3=O)nc12` + COc1ccc(COc2ccc(Cc3cnc(N)nc3N)cc2OC)cc1 [GW2580] (first compound 0.2 µM, partner dose 1 µM) showed a cell count of 98.4%.
